From PubChem BioAssay AID1346378 (National Center for Advancing Translational Sciences (NCATS), 2018)
Values joined by “and” are separate entries in the source; they are usually repeats but may differ in a detail not shown here. Equal values may be shown once. Screen size: about 420,000 compounds; about 540 (0.13%) were called active. Inconclusive means that the source gave no clear call. Such entries were picked first, then a sample of the others. Cut-off read from the data, not from the text of the source: active = activity change below about -50%; inconclusive = mostly about -30% to -49%; inactive = weaker than that. Some structures have more than one record in an assay (separate samples or runs), and their calls can disagree.

The molecules below were run against Phosphatidylinositol 4-kinase type 2-alpha (Homo sapiens) (UniProt Q9BTU6) (assay: qHTS for small molecular inhibitors of PI4K2A). Details: purified PI4K2A, ADP-Glo luminescence, 1 h; at 76.9 µM, hits give low values.
Summary of the method: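 In this quantitative HTS, ADP production by PI4K2A was quantified luminescently after 1 h at ambient temperature; 100 microM adenosine served as plate-quality control.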
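Note: -100% = wells without enzyme as full effect.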

Chain of UniProt Q9BTU6 (Q9BTU6 whole entry, looked up): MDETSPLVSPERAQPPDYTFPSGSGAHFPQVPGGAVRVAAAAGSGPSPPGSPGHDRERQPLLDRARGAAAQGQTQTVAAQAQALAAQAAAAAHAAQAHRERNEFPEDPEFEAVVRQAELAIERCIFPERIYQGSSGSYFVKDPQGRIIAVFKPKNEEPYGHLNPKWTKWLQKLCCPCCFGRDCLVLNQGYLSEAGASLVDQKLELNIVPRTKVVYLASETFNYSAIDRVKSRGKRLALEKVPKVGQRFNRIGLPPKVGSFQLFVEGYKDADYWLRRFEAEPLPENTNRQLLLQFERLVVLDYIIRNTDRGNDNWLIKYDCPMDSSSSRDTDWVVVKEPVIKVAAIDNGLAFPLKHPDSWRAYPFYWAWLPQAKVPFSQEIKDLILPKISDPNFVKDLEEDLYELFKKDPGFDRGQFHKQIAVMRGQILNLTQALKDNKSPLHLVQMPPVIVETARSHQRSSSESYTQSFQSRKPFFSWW

SMILES	activity change, negative = inhibition
CCN(CC)c1ccc(C(=O)N/N=C/c2ccccc2OC(F)F)cc1	inactive: 4.92%
COc1cccc(Nc2nc(-c3sc(NC(=O)c4ccccc4)nc3C)cs2)c1	inconclusive: -48.4%
Oc1cc(O)cc(/C=C/c2ccc(O)c(O)c2)c1	active: -58.5% and active: -52.9%
C[C@@H](CO)NC(=O)c1ccc2c3n(nc2c1)-c1ccccc1CO3	inconclusive: -44.1%
CC(=O)Oc1ccc(-c2ccc(C(=O)NCCc3ccc(S(N)(=O)=O)cc3)cc2)cc1	inconclusive: -46.8%
COc1ccc(N2CCN(CC(=O)Nc3nc4c(s3)CC(C)CC4)CC2)cc1 (configuration not stated)	inactive: 8.72%
Nc1ccc2nc(-c3ccccc3)sc2c1	active: -54.9%
Cc1cc(C)cc(N(CC(=O)NC2CCC(C)CC2)S(=O)(=O)c2cccs2)c1 (configuration not stated)	inactive: 2.58%
O=C(c1ccccc1)c1cc(-c2ccccc2)on1	active: -51.1%
COc1ccc(/C=N\n2nnc3ccccc32)cc1	active: -59%
O=C(N=Nc1c(O)[nH]c2ccccc12)c1cc(NS(=O)(=O)c2cccs2)cc(NS(=O)(=O)c2cccs2)c1	active: -51.1%
C=CCNC(=O)c1ccc(Cn2c(=S)[nH]c3cc4c(cc3c2=O)OCO4)cc1	inconclusive: -48.3%
CC(=O)NC(=S)Nc1ccc(NC(=S)NC(=O)/C=C/c2ccco2)cc1	inconclusive: -33.2%
Nc1cccnc1Sc1cccc(Cl)c1	active: -69.3%
CCCOc1ccc(NCC(=O)Nc2ccc(C)cc2C)cc1	inactive: 10.8%
Cc1ccc(NC2C(=O)NC(=O)NC2=O)cc1	active: -58.9%
CN1c2ccccc2C(C)(C)C12C=Nc1c(cc(N3CCOCC3)c3ccccc13)O2 (configuration not stated)	inconclusive: -43.7%
CC(=O)N(C1=C(Cl)C(=O)c2ccccc2C1=O)c1ccc(C(=O)O)cc1	inconclusive: -35%
CCOC(=O)N1CCc2c(sc(NCc3cccs3)c2C(=O)Nc2ccc(OC)cc2OC)C1	inconclusive: -31.7%
Cc1ccccc1Cn1c(=O)n(-c2ccc(Cl)cc2)c(=O)c2c3c(sc21)CCCC3	inactive: -2.72%
CC1(C)Cc2c(C#N)c(N)sc(=S)c2CS1	inconclusive: -44.6%
COCCn1c(SCC(=O)N2CCCCC2)nc2ccccc2c1=O	active: -64.8%
CCCCOC(=O)C1=C(C)NC(=O)NC1c1ccc([N+](=O)[O-])s1 (configuration not stated)	inactive: -17%

SMILES	activity change, negative = inhibition
CN(C)/C=C/C1=C([N+](=O)[O-])C(c2cccc([N+](=O)[O-])c2)NC(=O)N1 (configuration not stated)	inactive: -2.29%
NC1=NC(=O)C(Cc2ccc(F)cc2)S1 (configuration not stated)	inactive: 6.57%
CCCCCN1C=CC(=C2C(=O)c3ccccc3C2=O)C=C1	inconclusive: -43.2%
Cc1nnc(N/N=C/c2cc(C)n(-c3ccc(F)cc3)c2C)n1N	inconclusive: -30.5%
Cc1[nH][nH]c(=O)c1C(c1ccc(-c2cccc(Cl)c2)o1)c1c(C)[nH][nH]c1=O	inconclusive: -40.9%
O=C(O)c1cccc(Nc2cc(Cl)c3nonc3c2[N+](=O)[O-])c1	inconclusive: -35.5%
Cc1c(C(=O)OCC2CCCO2)[nH]c2c1C(=O)CC(c1ccco1)C2 (configuration not stated)	active: -53.5%
O=C1ON=C(c2ccccc2)/C1=C/c1ccc(-c2ccccc2[N+](=O)[O-])o1	inconclusive: -33.3%
CCn1c(C)nc2cc(-c3nc4n(n3)Cc3ccccc3-4)ccc21	active: -68.9%
CCCOc1ccc(Cc2nn3c(=O)/c(=C/c4ccco4)sc3nc2=O)cc1	inconclusive: -44.3%
Cc1cc(=O)[nH]c(SCc2cccc3ccccc23)n1	inactive: -2.65%
COc1ccccc1OCC(=O)NNC(=O)Nc1ccc(Cl)cc1	inactive: -4.44%
CC(=O)Nc1ccc(OCc2cn(CC(=O)c3ccc(O)cc3)nn2)cc1	inconclusive: -32.3%
Cc1ccc(CNc2ccc(O)cc2)cc1	inconclusive: -43.1%
O=c1[nH]c(N2CCOCC2)cc2ccccc12	inconclusive: -30%
C=CCN(CC=C)Cc1c(O)ccc2c1oc(=O)c1ccccc12	inconclusive: -32.3%
CCOC(=O)c1c(C)[nH]c(/C(C)=N/O)c1C	inactive: -2.36%
O=C(CSc1nc2ccccc2c2nc3ccccc3n12)NCc1ccco1	active: -53.5%
O=Cc1ccccc1OCc1ccc2c(c1)OCO2	inconclusive: -41.7%
O=C1c2cccc3cccc(c23)C(=O)N1/N=C/c1ccc(O)cc1O	inactive: 3.34%
Cc1nc2cc(-c3ccccc3)sc2c(=O)n1N	active: -80.3%
Cc1nc(-c2ccc(NC(=O)c3ccccc3)cc2)cs1	inconclusive: -45.6%
Nc1ccc2nc3c(=O)[nH]c(=S)[nH]c3nc2c1	active: -58.2%

SMILES	activity change, negative = inhibition
Cc1ccc(C=C2C(=O)c3ccccc3C2=O)s1	active: -53.1%
Cn1c(NC(=O)Cc2ccc(F)cc2)cc(=O)n(C)c1=O	inconclusive: -38.9%
CCOC(=O)c1cccc2c1N[C@@H](c1ccc(F)cc1)[C@H]1CC=C[C@@H]21	inactive: -0.0215%
O=c1c2ccccc2[nH]c(=S)n1CCCN1CCN(c2ccccc2F)CC1	inactive: -10.1%
O=C(Nc1cccc(O)c1)c1noc2c1CCc1ccccc1-2	inconclusive: -32.8%
O=C(COC(=O)c1cccs1)c1ccc2c(c1)OCCO2	inconclusive: -48.3%
COc1ccc(/C=N/NC(=O)C2COc3ccccc3O2)cc1OC (configuration not stated)	inactive: 0.443%
Cc1ccc(C)c(NC(=O)c2ccc3ccccc3n2)c1	inconclusive: -30.8%
COC(=O)CCC(=O)OC1(C)C(=O)C=C2C=C(C3CC3)N(CCCOC(C)C)C=C2C1=O (configuration not stated)	inconclusive: -35.8%
O=C(CSc1nnc(-c2ccccc2)n1Cc1ccco1)Nc1ccc(S(=O)(=O)N2CCCC2)cc1	inactive: 1.63%
COc1ccc(Br)cc1CNc1ccc(O)cc1	active: -50.1%
COc1ccc(OC)c(-c2c3cc(O)c(=O)cc-3oc3cc(O)c(O)cc23)c1	active: -50.9%
COC(=O)C[C@H]1CC[C@H]2[C@H](COc3ccc(NS(=O)(=O)c4cccc(OC)c4)cc3C(=O)N2C)O1	inactive: 0.287%
CCC(C)n1c(NC(=O)c2ccccc2)c(C#N)c2nc3ccccc3nc21 (configuration not stated)	active: -56.2%
Cn1nc(C(F)(F)F)c(/C=N/OC(=O)c2ccccc2)c1SCc1ccccc1Cl	inactive: 1.8%
Nc1nccc(/C=C/c2c(F)cccc2Cl)n1	inactive: 1.73%
Oc1cccc2cc(-c3ccncc3)cnc12	inconclusive: -30.5%
Nc1c(C(=O)OCC(=O)Nc2ccc(OC(F)F)cc2)[nH]c(=O)[nH]c1=O	inconclusive: -41%
Cc1ccc(O)c(N=Cc2cc(Cc3ccccc3)cc([N+](=O)[O-])c2O)c1	inconclusive: -33.6%
O=C(NCc1ccco1)c1cc2cc3ccc(Cl)cc3nc2o1	inconclusive: -35.4%
COc1cccc(Nc2nc3ccccc3nc2NS(=O)(=O)c2cccs2)c1	inactive: 1.12%
Cc1ccnc2nc(C(=O)Nc3ccc(N4CCOCC4)cc3)nn12	inconclusive: -46%
COc1ccc(Cn2cc(CN3CC(N4CCN(C)CC4)CS3(=O)=O)nn2)cc1 (configuration not stated)	inactive: -5.2%

SMILES	activity change, negative = inhibition
COc1cccc(/C=N/Nc2nccnc2Cl)c1O	active: -59.9%
O=[N+]([O-])c1c(NCCCO)cc(Sc2nc3ccccc3s2)c2nonc12	inconclusive: -39.3%
Cc1ccc(C)c(OCCCC(C)(C)C(=O)O)c1	active: -62.2%
O=c1[nH]c(/C=C/c2cccnc2)c([N+](=O)[O-])c(=O)[nH]1	inconclusive: -32.6%
COC(=O)c1cc(C)nc2c1C(=O)C(=O)C=C2N1CCOCC1	active: -83.1%
Nc1cc2sc(-c3ccc(C(=O)O)cc3)nc2cc1Cl	active: -75.6%
O=C(/C=C/c1ccco1)NC(=S)Nc1cccc(-c2nc3ccccc3o2)c1	inconclusive: -31.8%
CCCCOc1ccc(C(=O)n2ccc3ccc(-c4ccc5ccn(Cc6cccc(C(=O)OC)c6)c5c4)cc32)cc1	inactive: -2.3%
Cc1cc(N)ccc1N1CCCC1	inconclusive: -30.3%
CC(C)(C)NC(=O)NC(=O)CN1CCCCC1	inactive: -5.99%
CCOc1ccccc1C1C(C#N)=C(N)Nc2onc(-c3ccccc3)c21 (configuration not stated)	inconclusive: -41.6%
O=C(COc1ccc(Cl)cc1)N/N=C/CCc1ccccc1	inactive: 7.66%
COCC(=O)Nc1nc2n(n1)C(c1ccccc1Cl)CC(c1ccc(OC)cc1)N2 (configuration not stated)	inactive: -1.46%
O=C(Nc1ccc(F)cc1F)c1ccc(-c2ccccc2)s1	inconclusive: -36.3%
Cc1ccc(NC(=S)NNc2ccc(C(=O)O)cc2[N+](=O)[O-])cc1C	inconclusive: -30.2%
O=C(O)CCNc1cc(N2CCN(C(=O)c3ccco3)CC2)c2noc3c2c1C(=O)c1ccccc1-3	active: -61%
O=C(NC1CCCCC1)Sc1ccc(Cl)cc1	inconclusive: -30.2%
COc1ccc(OCC2c3cc(OC)c(OC)cc3CCN2C(=O)C(C)C)cc1 (configuration not stated)	inactive: 0.683%
O=S(NCc1ccccc1)C12CC3CC(CC(C3)C1)C2 (configuration not stated)	inactive: -3.68%
COc1ccc(/C=N/Nc2nnc(C)n2N)cc1OC	inconclusive: -34.4%
N#Cc1c(N2CCCCC2)nc(N)c2c(N)nc(SCC(=O)O)cc12	active: -59.8%
COc1ccc(OC)c(C2C(C(=O)c3cccs3)=C(O)C(=O)N2c2cc(C)on2)c1 (configuration not stated)	inactive: 7.73%
COc1ccc(OC)c(CCNC(=O)C(=O)Nc2ccc3nc4n(c(=O)c3c2)CCCCC4)c1	inactive: 4.41%
